Assay results as given in PubChem BioAssay AID463173 (ICCB-Longwood Screening Facility, Harvard Medical School, 2010).
The whole screen tested about 52,000 compounds, of which about 4,300 (8.3%) were called active. Rule as the data show it: active = survival mostly below about 52% (no sharp cut-off); inactive = mostly above about 56%. The list shows a part of the results.

Test system: DeltatarO mutant
Test: growth inhibition of S. aureus wild type versus tarO mutant, primary screen, teichoic acid synthesis inhibitors, RN4220, OD600 (AID 463173)
Settings: OD600, 18 h, stronger effect = lower value, screened at 18.75 µg/mL (by protocol)

| Structure (SMILES) | survival |
| --- | --- |
| Cc1cccn2c(Nc3ccc4c(c3)OCCO4)c(-c3ccc(Br)o3)nc12 | inactive: 80% |
| COc1ccc(OC)c(CNC(=O)c2cc(-c3ccc(Cl)s3)nc3ccccc23)c1 | inactive: 71% |
| Cc1ccc(-n2nc(C(=O)NCCc3cccc(C)c3)c3c4ccccc4n(C)c3c2=O)cc1 | inactive: 135% |
| COc1ccccc1NC(=O)c1oc2ccccc2c1NC(=O)c1ccc(S(=O)(=O)N(C)C)cc1 | inactive: 51% |
| COc1ccccc1NC(=O)CN1CCN(CC(=O)Nc2ccc(F)c(F)c2)CC1 | inactive: 126% |
| COC(=O)c1ccc(Cl)cc1NC(=O)Nc1nnc(N(C)Cc2ccccc2)s1 | inactive: 96% |
| COc1ccc(C2c3c(-c4ccccc4O)n[nH]c3C(=O)N2CCc2ccccc2)cc1 (stereo not given) | active: 21% |
| CCC(C(=O)OC)n1nnc2sc(-c3ccccc3)cc2c1=O (stereo not given) | inactive: 57% |
| COc1ccc2c(c1)c(=O)c(C(=O)c1ccc(C)cc1)cn2Cc1ccccc1F | inactive: 68% |
| CCOC(=O)c1ccc(CN(Cc2ccc(Br)cc2)S(=O)(=O)c2cccc(C(F)(F)F)c2)cc1 | inactive: 84% |
| Cc1cc(C)cc(NC(=O)C(=O)NCC(c2cccnc2)N2CCc3ccccc32)c1 (stereo not given) | active: 43% |
| Cn1c(=O)c2sccc2n2c(CCC(=O)Nc3ccc(F)cc3)nnc12 | inactive: 73% |
| COc1ccc(OC)c(-c2noc(N3CCN(c4cc(Cl)ccc4C)CC3)n2)c1 | inactive: 130% |
| Cc1ccc(C)c(NC(=O)CSc2nnc(C)n3c2cc2occc23)c1 | inactive: 66% |
| CCC1CCCCN1CCCNC(=O)c1ccc2c(c1)sc1nc(-c3ccc(F)cc3)cn12 (stereo not given) | active: 14% |
| CCOc1ccc(OCC)c(S(=O)(=O)N2CCC(C)CC2)c1 | inactive: 94% |
| CC(OC(=O)c1cc2sccc2n1C)C(=O)NCc1cccs1 (stereo not given) | inactive: 98% |
| CC(C)COc1ccc(Nc2ncnc3ccc(Br)cc23)cc1 | inactive: 70% |
| Cc1cccc(NC(=O)NC2COc3ccccc3C2)c1C (stereo not given) | inactive: 69% |
| Cc1ccc(CN(Cc2ccco2)C(=O)c2cccc(C)c2)cc1 | inactive: 68% |
| COC(=O)c1sccc1S(=O)(=O)N(CC(=O)NCc1ccc(F)cc1)c1ccc(C)c(C)c1 | inactive: 87% |
| CNS(=O)(=O)c1cn(CC(=O)N2CCN(c3ccc(C)cc3C)CC2)cc1S(=O)(=O)NC | inactive: 75% |
| Cc1ccc(N2C(=O)CS(=O)(=O)C23C(=O)N(Cc2ccccc2F)c2ccccc23)cc1Cl (stereo not given) | inactive: 60% |

| Structure (SMILES) | survival |
| --- | --- |
| O=C(COc1ccccc1Cl)Nc1ccccc1OCc1cc(=O)n2ccccc2n1 | inactive: 92% |
| CN(c1ccccc1)C(CNS(=O)(=O)c1ccccc1)c1ccccc1 (stereo not given) | inactive: 82% |
| CCCCN(CC)CCNc1ncnc2onc(-c3ccc(Cl)cc3)c12 | inactive: 96% |
| CCOC(=O)N1CCN(CCC(=O)Nc2cccc(Cl)c2C)CC1 | inactive: 92% |
| Cc1ccc(Cl)cc1N1CCN(C(=O)c2cn(CC(C)C)c(=O)c3c2c2ccccc2n3C)CC1 | inactive: 95% |
| Cc1ccc(CCNC(=O)c2ccc(CNS(=O)(=O)c3ccc(C)cc3)cc2)cc1 | inactive: 71% |
| CCCN1CCCc2cc(CN)ccc21 | inactive: 82% |
| O=C(c1cccs1)N1CCN(c2ccc(Cl)cc2)CC1 | inactive: 94% |
| CCOC(=O)c1nc(Nc2ccc(Cl)cc2)c2c(C)noc2n1 | inactive: 68% |
| CC(=O)Nc1ccc(S(=O)(=O)N2CCN(Cc3ccccc3Cl)CC2)cc1 | active: 62% |
| O=C(Nc1cc(C(F)(F)F)ccc1Cl)c1ccc2c(c1)CCN2S(=O)(=O)c1ccccc1 | inactive: 48% |
| COc1cc(OC)cc(-c2cc3nc(-c4ccccc4)cc(N4CCN(c5ccccc5)CC4)n3n2)c1 | inactive: 101% |
| CCc1ccc(CNC(=O)C(CC)n2nc(C)c3c(C)n(-c4ccccc4)nc3c2=O)cc1 (stereo not given) | inactive: 106% |
| CCCNc1ccc(-c2nc(-c3ccco3)no2)cc1[N+](=O)[O-] | active: 57% |
| O=C(O)CCC(=O)N1N=C(c2ccccc2)CC1c1ccc2nccnc2c1 (stereo not given) | inactive: 99% |
| CN1CCN(C(=O)c2ccccc2C(=O)O)CC1 | inactive: 96% |
| COc1ccc(CNc2nc(-c3ccco3)nn2C(=O)CC(C)C)cc1 | inactive: 103% |
| CCOC(=O)c1[nH]c2ccccc2c1NC(=O)c1ccccc1OC | active: 51% |
| CC(Oc1ccccc1)C(=O)Nc1nnc(S(=O)(=O)N2CCCCCC2)s1 (stereo not given) | inactive: 50% |
| COc1ccc(C(=O)Nc2nnc(S(=O)(=O)N3CCN(c4ccc(C)cc4)CC3)s2)cc1 | active: 48% |
| Cc1ccccc1C(=O)Nc1cccc(-c2cn3cccnc3n2)c1 | inactive: 82% |
| Cc1ccc(Oc2nc3c(c(=O)n(Cc4ccccc4Cl)c(=O)n3C)n2C)cc1C | inactive: 61% |
| COc1ccc(-c2cc3nc(C)c(CCC(=O)Nc4ccc(F)cc4F)c(C)n3n2)c(OC)c1 | inactive: 84% |

| Structure (SMILES) | survival |
| --- | --- |
| COc1cccc(-c2cc(C(=O)Nc3ccc4c(c3)OCO4)no2)c1 | inactive: 69% |
| Cc1cn2c(=O)cc(COc3cccc(NC(=O)c4ccccc4Cl)c3)nc2s1 | inactive: 72% |
| COc1ccc(N2CCN(C(=O)c3ccc4c(c3)N(Cc3cc(C)ccc3C)C(=O)c3ccccc3S4=O)CC2)cc1 (stereo not given) | inactive: 85% |
| COc1cccc(N2CC(NC(=O)C3CCCCC3)CC2=O)c1 (stereo not given) | inactive: 144% |
| CC(=O)c1c(C)oc2ccc(NS(=O)(=O)c3ccc(C(C)C)cc3)cc12 | inactive: 78% |
| CCS(=O)(=O)N1CCCC(c2nc3c(nnn3Cc3ccc(C)cc3)c(=O)[nH]2)C1 (stereo not given) | inactive: 88% |
| CN(C(=O)CSc1nc(N)cc(=O)[nH]1)c1ccccc1 | inactive: 94% |
| CCSc1ncc(Cl)c(C(=O)Nc2sc3c(c2C(=O)NC)CCCC3)n1 | inactive: 82% |
| CC(Oc1ccccc1F)C(=O)Nc1ccc(-c2nc3ccccc3s2)cc1 (stereo not given) | inactive: 107% |
| CCc1cccc(NC(=O)CN(C)S(=O)(=O)c2cccc3cccnc23)c1 | inactive: 59% |
| CC1CCc2c(sc(NC(=O)c3cc4nc(-c5ccc(Cl)cc5)cc(C(F)(F)F)n4n3)c2C#N)C1 (stereo not given) | inactive: 91% |
| CC(=O)c1ccc(N2CCN(C(=O)CCS(=O)(=O)c3ccc4c(c3)oc(=O)n4C)CC2)cc1 | inactive: 83% |
| CCOc1ccc(N2CC(C(=O)NCc3nnnn3-c3ccc(C)c(C)c3)CC2=O)cc1 (stereo not given) | inactive: 57% |
| CCOc1ccc(NS(=O)(=O)c2ccc3[nH]cc(C(=O)NCC4CCCO4)c(=O)c3c2)cc1 (stereo not given) | inactive: 87% |
| COC(=O)CN1C(=O)CSc2ccc(S(=O)(=O)Nc3cccc(Cl)c3C)cc21 | inactive: 92% |
| Nc1c(-c2nc(-c3ccc(F)cc3)cs2)c2ccccn2c1C(=O)c1ccc2c(c1)OCO2 | inactive: 89% |
| CC(=O)Nc1cccc(-c2nc3ccccc3o2)c1 | inactive: 107% |
| Cc1cc(=O)n(CC(=O)N2CCN(c3ccc(F)cc3)CC2)c2c1c(C)nn2C | inactive: 99% |
| COc1ccc(NCc2cc3ccc(OC)cc3n(CC(=O)Nc3cc(Cl)ccc3C)c2=O)cc1 | inactive: 78% |
| CC(C)CCN(C(=O)Nc1ccc(Cl)c(Cl)c1)C(C)c1cccs1 (stereo not given) | inactive: 116% |
| O=c1[nH]c2sc3c(c2c(=O)n1-c1ccccc1)CCCC3 | inactive: 70% |
| O=C(Nc1cccnc1)C12CC3CC(CC(C3)C1)C2 | inactive: 62% |
| CCOC(=O)c1c(S(=O)(=O)NCC(=O)NCc2ccccc2)c(C)n(C)c1C | inactive: 80% |

| Structure (SMILES) | survival |
| --- | --- |
| CCc1ccc2c(c1)NC(c1ccc(OC)cc1)=NC(c1ccncc1)=N2 | inactive: 72% |
| COc1cc(/C=C/c2nc(C#N)c(N3CCC(C)CC3)o2)cc(OC)c1OC | inactive: 57% |
| CCOc1ccccc1NC(=O)C(C)N(c1ccccc1)S(C)(=O)=O (stereo not given) | inactive: 91% |
| CCCCCC1CC(CC(=O)Nc2nncs2)C(=O)O1 (stereo not given) | inactive: 110% |
| COc1ccc(S(=O)(=O)c2cnc(SCC(=O)Nc3cc(F)ccc3C)[nH]c2=O)cc1Cl | inactive: 84% |
| CCC1CCCCN1C(=O)c1sc(-n2nc(C)c(Cc3ccccc3)c2C)nc1C (stereo not given) | inactive: 69% |
| Cc1ccc(Cl)cc1NC(=O)CN1C(=O)C(C)(C)c2cc(S(=O)(=O)N3CCCCC3)ccc21 | active: 6% |
| CC(=O)c1cccc(NC(=O)c2cc3c(s2)-c2c(C)cccc2OC3)c1 | inactive: 120% |
| Cc1cc(NC(=O)c2ccc(NC(=O)C(C)C)cc2)no1 | active: 72% |
| Cc1ccc(NC(=O)C2CCN(S(=O)(=O)c3cc(-c4noc(C)n4)ccc3C)CC2)c(C)c1 | inactive: 134% |
| CCCN(CCC)CCCNC(=O)c1cc2c(=O)[nH]c3ccccc3c2n1C | inactive: 94% |
| COc1ccc(C2N3CC4(C)CN2CC(c2ccccc2)(C3)C4=O)cc1OC (stereo not given) | inactive: 97% |
| O=C(NC1CCCC1)C(c1ccc(N2CCOCC2)cc1)N(Cc1ccco1)C(=O)c1ccco1 (stereo not given) | inactive: 83% |
| O=C(CSc1c2c(nc3cc(Cl)ccc13)CCCC2)NCc1ccccc1Cl | inactive: 75% |
| C/C=C/C(=O)Nc1ccc(Cl)c(Cl)c1 | inactive: 70% |
| Cc1ccc2c(c1)N(CCCC(=O)NCc1cccc(F)c1)C(=O)CO2 | inactive: 127% |
| COc1ccccc1OCC(=O)Nc1c(C(=O)c2ccc(F)cc2)oc2ccccc12 | inactive: 77% |
| CSc1ncc(C(=O)N2CCN(c3cccc(C(F)(F)F)c3)CC2)c(C)n1 | inactive: 69% |
| COc1ccc(NC(=O)C(NC(=O)/C=C\c2ccc3c(c2)OCO3)c2ccccc2)cc1 (stereo not given) | inactive: 55% |
| CCc1ccccc1NC(=O)C1CCCN(c2cnccn2)C1 (stereo not given) | inactive: 90% |
| Cc1ccc(NC(=O)CSc2nc(=O)cc(N)n2CCc2ccccc2)cc1 | inactive: 50% |
